Experimental data published in the RNAGym collection of RNA variant scans (doi:10.1073/pnas.2313332121).
Variants at the background level are over-represented here.

B1: TPR 5TU (parent)
chain: GGAUCUUCUCGAUCUAACAAAAAAGACAAAUCUGCCACAAAGCUUGAGAGCAUCUUCGGAUGCAGAGGCGGCAGCCUUCGGUGGCGCGAUAGCGCCAACGUUCUCAACUAUGACACGCAAAACGCGUGCUCCGUUGAAUGGAGUUUAUCAUG

Variants of: B1
Assay: polymerase ribozyme fitness, log enrichment relative to wild type (log ratio); higher = more active; in vitro selection for triplet polymerase activity
In short: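 Only genotypes with ≥10 input reads and ≥1 read per output were kept after Illumina sequencing of input and output libraries. These libraries were PCR-built, transcribed mutants of each subunit of a heterodimeric triplet polymerase ribozyme, each put through one triplicate in vitro selection round with frozen incubation at −7 °C, gel excision of extended constructs, streptavidin-bead capture and RT-PCR. Fitness is a logarithmic ratio of genotype enrichment to wild-type enrichment, from inverse-variance-weighted replicate averages, with the logarithm in base 2.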

Polymerase ribozyme fitness (log ratio), ≤ -4.2:
GGAUCUUCUCGAUCUAACAAAAAAGACAACUCUGCCACAAAGCUUGAGAGCAUCUUCGGAUGCAGAGGCGGCAGCCUUCGGUGGCGCUAUAGCGCCAACGUUCUCAACUAUGACACGCAAAACGCGUGCUCCGUCGAAUGGAGUUUAUCCUG [A30C G88U U135C A150C]
GGAUCUUCUCGAUCUAACAAAAAAGACAAGUCUGCCACUAAGCUUGAGAGCAUCUUCGGAUGCAGAGGCGGCAGCCUGCGGUGGCGCAAUAUCGCCAACGUUCUCAACUAUGACACGCAAAACGCGUGCUCCGUUGUAUGGAGUUCAUCAUG [A30G A39U U78G G88A G92U A137U U146C]
GGAUCUUCUCGAUCUAACAAAAAAGACAACUCUGCCACAAAGCUUGAGAGCAUCUUCGGAUGCAGAGGCGGCAGCCUUGGGUGGAGCGAUCGCGCCAACGUUCUCAACUAUGACACGCAAAACGCGUGCUCCGUUGAAUGGAGUUUAUCAUG [A30C C79G C85A A91C]
GGAUCUUCUCGAUCUAACAAAAAAGACAACUCUGCCACAAAGCUUGAGAGCAUCUUCGGAUGCAGAGGCGGCAGCCUUCGCUGGCGCGAUAGCGCCAACGUUCUCAACUAUGACACGCAAAACGCGUGCUCCGUUGAGUGGAGUUAAUUAUG [A30C G81C A138G U146A C149U]
GGAUCUUCUCGAUCUAACAAAAAAGACAACUCUGCCACAAAGCUUGAGAGCAUAUUCGGAUGCAGAGGCGGCAGCCUUCGGUGGCGCGAUAGCGCCAACGUUCUCAACUAUGACACGCAAAACGCGUGCUCCGUUGAAUGGAGUUUAUCAUG [A30C C54A]
GGAUCUUCUCGAUCUAACAAAAAAGACAACUCUGGCACAAAGCUUGAGAGCAUCUUCCGAUGCAGAGGCGGCAUCCUUCGGUGGCGCGAUAGCGCCAACGUUCUCAACUAUGACACGCAAAACGCGUGCUCCGUUGAAUGGAGUUUAUAAUG [A30C C35G G58C G74U C149A]
GGAUCUUCUCGAUCUAACAAAAAAGACAAGUCUGCCACAAAGCUUGGGAGCAUCUUCGGAUGCAGAGGCGGCAGCCUUCGGUGGCGAGAUAGCGCCAACGUUCUCAACUAUGACACGCAAGACGCGUGCUCCGUUGAAUGGAGUUUAUCAUG [A30G A47G C87A A121G]
GGAUCUUCUCGAUCUAACAAAAAAGACAACUCUGCCACAAAGCUUGAGUGCAUCUUCGGAUGCAGAGGCGGCAGCCUUCGGUGGCGCGAUAGCGCCAACGUUCUUAACUAUGACACGCAAAACGCGUGCUCCGUUAAAUGGAGUUUAUCAUG [A30C A49U C105U G136A]
GGAUCUUCUCGAUCUAACAAAAAAGACAACUCUGCCACAAAGCUUGAGACCAUCGUCGGAUGCAGAGGCGGCAGCCUUUGGUGGCGCGAUAGCGCCAACGUUAUCAACUAUGACACGCAAAACGCGUGCUCCGUUCAAUGGCCUUUAUUAUG [A30C G50C U55G C79U C103A G136C A142C G143C C149U]
GGAUCUUCUCGAUCUAACAAAAAAGACAACUCUGCCACAAAGCUUGAGAGCAUCUUCGGAUGCAGAGGCGGCAGCCUUCGGUGGCGGGAUAGCGCCAACGUUCUCAACUAUGAUACGCGAAACGCGUGCUCCGUUGAAUGGUGUUUUUCAUG [A30C C87G C114U A119G A142U A147U]
GGAUCUUCUCGAUCUAACAAAAAAGACAACUCUGCCACAAAGCUUGAGAGCAUCUUCGGAUGCAGAGGCGGCAGCCUUCGGUGGCGCGAUAGCGCUAACGUUCUCAACUAUGACACGCAAAACGCGUGCUCCGUUGACUGGAGUUUAUCAUG [A30C C96U A138C]
GGAUCUUCUCGAUCUAACAAAAAAGACAAGUCUGCCACAUAGCUUGAGAGCAUCUUGGGAUGCAGAGGCGGCAGCCUUCGGUGGCGCGAUAGCGACAACGUUCUCAAGUAUGACACGCAAAACGCGUGCUCCAUUGAAUGGAGUUUAUCAUG [A30G A40U C57G C95A C108G G133A]
GGAUCUUCUCGAUCUAACAAAAAAGACAACUCUGCCACAAAUCAUGAGAGCAUCUUCGGAUGCAGAGGCGGCAGCCUUCGGUGGCGCGAUAGCGCCAACGUUCUCAACUAUGACACGCAAAACGCGUGCUCCGUUGAAUGGAGUUUAUCAUG [A30C G42U U44A]
GGAUCUUCUCGAUCUAACAAAAAAGACAACUCUGCCACAAAGCUUGAGAUCAUCUUCGGAUGCAGAGGCGGCAGCCGUCGGUGGCGCGAUUGCGCCAACGUUCUCAACUAUGACACUCAAAUCGCGUGCUCCGUUGAAUGGAGUUUAUCAUG [A30C G50U U77G A91U G117U A122U]
GGAUCUUCUCGAUCUAACAAAAAAGACAACUUUGCCACAAAGUUUGAGAGCAUCUUCGGAUGCAGCGGCGGCUGCCUUCGGUGGCGCGAUAGCGCCAACGUUCUCAACUAUGACACGCAAAACGCGUGCUCCGUUGAAUGGAGUUUAUCAUG [A30C C32U C43U A66C A73U]
GGAUCUUCUCGAUCUAACAAAAAAGACAACUCUGCCACAAAUCUUGAGAGCAUCUUCGGAUGCAAAGGCGGCAGCCUUCGGUAGCGGGAUAGCGCCAACGUUCUCAACUAUGACACGCAAAACGCGUGCUCCGUUGAAUGGAGUUUAUCAUG [A30C G42U G65A G83A C87G]
GGAUCUUCUCGAUCUAACAAAAAAGACAACUCUGCCACAAAGCUUGAGACCAUCUUCGGAUGCAGAUGCGGCAGCCUUCGGUGGCUCGAUAGCGCCAACGUUCUUAACUAUGACACGCAAAACGCUUGCUCCGUUGAAUGGAGUUUAUCAUG [A30C G50C G67U G86U C105U G126U]
GGAUCUUCUCGAUCUAACAAAAAAGACAACUCUGCCACAAAGCUUGAGAGCAUAUUCGGAUGCAGAGGCGGCAGCCUUCGGUGGCGCGAUAGCGCAAACGUUCUCAACUAUGACACGCAAAACGCGUGCUCCGUUGAAUGGAGUUUAUCAUG [A30C C54A C96A]
GGAUCUUCUCGAUCUAACAAAAAAGACAAGUCUGCCACAAAGCUUGAGAGCAUCUUCGGAUGCCGAGGCGGCAGCCUUCGGUGGCGCGUUAGUGCCAACGUUCUCAACUAUGACACGCAAAACGCGUGCUCCGUUGAAUGGAGUUUAUCAUG [A30G A64C A89U C93U]
GGAUCUUCUCGAUCUAACAAAAAAGACAACUCUGCCACAAAGCUUGAGAGCAUCUUCGGAUGCAGAGGCGGCAGCAUUCGGUCGCGCGAUAGCGCCAACGUUCUCAACUAUGACACGCAAAACGCGUGCUCCGUUGAAUGGAGUUUAUCAUG [A30C C76A G83C]
GGAUCUUCUCGAUCUAACAAAAAAGACAACUCUGCCACAUAGCUUGAGAGCGUCUUCGGAUGCAGAGGCGGCAGCCUUCGGUGGAGUGAUAGCGCCAACGUUCUCUACUAUGACACGCAGAACGCGUGCUCCGUUGAAUGGAGUUUAUCAUG [A30C A40U A52G C85A C87U A106U A120G]
GGAUCUUCUCGAUCUAACAAAAAAGACAACUUUGCCACAAAGCUUGAGAGCAUCUUCGGAUGCAGAGGCGGCAGCCUUCGGUGGCGCGAUAGCGCGAACGUUCUCAACUAUGACACGCAAAACGCGUGCUCCGUUGAAUGGAGUUUAUCAUG [A30C C32U C96G]
GGAUCUUCUCGAUCUAACAAAAAAGACAACACUGCCACAAAGCUUGAGAGCUUCUUCGGAUGCAGAGGCGGCAGCCUUCGGUAGCGCGAUAGCGCCAACGUUCUCAACUAUGACACGCAAAACGCGUGCUCUGUUGAAUGGAGUUUAUCAUG [A30C U31A A52U G83A C132U]
GGAUCUUCUCGAUCUAACAAAAAAGACAACUCUGCCACAAAGCUUGAGAGCAUCUUUGCAUGCAGAGGCGGCAGCCUUCGGAGGCGCGAUAGCGCCAACGUUCUCAACUAUGACACACAAAACGCGUGCUCCGUUGACUGGAGUUUAUCAUG [A30C C57U G59C U82A G117A A138C]
GGAUCUUCUCGAUCUAACAAAAAAGACAUAUCUGCCACAAAGCUUGAGAGCAUCUUCGGAUGCAGAGGCGGCAGCCAUCAGUGGCGCGAUAACGCCAACGUUCUCAACUAUGACACGCAAAACGCGUGCUCCGUUGAAUGGAGUUUACCAUG [A29U U77A G80A G92A U148C]
GGAUCUUCUCGAUCUAACAAAAAAGACAACUCUGCCACAAAGCUUGAGAGCAUCAACGGAUGCAGAGGCGGCAGCCUUCGGUGGCGCGAUAGCGCCAACGAUCUCAACUAUCACACGCAAAACGCGUGCUCCGUUGAAUGGAGUUUAUCAUG [A30C U55A U56A U101A G112C]
GGAUCUUCUCGAUCUAACAAAAAAGACAACUCUGCCACAAAGCUUGAGAGCAUCUUCGGAUGCAGAGGCGGCAGCCUUCGGUGGCGCGAUAGAGCCGACGUUCUCAACUAUGACACGCAAAACGCGUGCUCCGUUGAAUGGAGUUUAUCAUG [A30C C93A A97G]
GGAUCUUCUCGAUCUAACAAAAAAGACAUAUCUGCCACAAAGCUUGAGAGCAUCUUCGGAGGCAGAGGCGGCAGCCUUCGGUGGCGCGAUAGCGCCAACGUUCUCAACUAUGACACUCAAAACGCGUGCUCCGUUGAAUGGAGUUUAACAUG [A29U U61G G117U U148A]
GGAUCUUCUCGAUCUAACAAAAAAGACAACUCUGCCACAAAGCUUGAGAGAAUCAUCGGAUGCAGAGGCGGCAGCCUUCGCUGGCGCGAUAGCGCCAACGUUCUCAACUAUGACACGCAAAACGCGUGCUCCGUUGAGUGCAGUUUAUCAUG [A30C C51A U55A G81C A138G G141C]
GGAUCUUCUCGAUCUAACAAAAAAGACAAGUCUGCCACAAAGCUUGAGGGCAUCUUCGGAUGCAGAGGCGGCAACCUUCGGUGGCUCGAUAGCGCCAACGUUCUCAACUAUGACACGCAAAACGCGUGCUCCGUUGAAUGGAUUUUAUCAUG [A30G A49G G74A G86U G143U]
GGAUCUUCUCGAUCUAACAAAAAAGACAACUCUGCCACAAAGCUUGUGAGCAUCUUCGGAUGCAGAGGCGGCAGCCUUCGGUGGCGCGAUAGCGCCAAUGUUCUCAACUAUGACACGCAAAACGCGUGCACCGUUGAAUGGAGUUUAUCAUG [A30C A47U C99U U130A]
GGAUCUUCUCGAUCUAACAAAAAAGACAACUCUGCCACAAAGCUUGAGAGCAUCUUCGGAUGCAGAGUCGGCAGCCUUCGGUGGCGCGAUAGCGCCAACGUUCUCAACUAUGACACGCAAAACGCGUGCUCCGUUGAAUGGAGUUUAUCAUG [A30C G68U]
GGAUCUUCUCGAUCUAACAAAAAAGACAUAUCUGCCACAAAGCUUGAGAGCAUCUACGGAUGCAGAGGCGGCAGCCUUCGGUGGCGCGAUAGCGCCAACGUUCUCAACUAUGACACGCAAAACGCAUGCUCGGUUGAAUAGAGUUUAUCAUG [A29U U56A G126A C132G G140A]
GGAUCUUCUCGAUCUAACAAAAAAGACAACGCUGCCACAAAGCUUGAGAGCAUCUUCGGAUGCAGAGGCGGCAGCCGUCGGUGGCGCGAUAGCGCCAACGUUCUCAGCUAUGACACGCAAAACGCGUGCUCCGUUGAAUGGAGUUUAGCAUG [A30C U31G U77G A107G U148G]
GGAUCUUCUCGAUCUAACAAAAAAGACAUAUCUGCCACAAAGCUUGAGAGCAUCUUCGGAAGCAGAGGCGGCAGCCUUCGGUGGCGCGAUUGCGCCAACGUUCUCAACUAUGACACGCAAAACGCGUGCUCCGUUGAAUGGAGUUUAUCAUG [A29U U61A A91U]
GGAUCUUCUCGAUCUAACAAAAAAGACAACUCUGCCACAAAGCUUGAGACCAUCUUCGGAUGCAGGGGCGGCAGCCUUCGGUGGCGCGAUAGCGCCAACGUUCUCAACUAUGACACGCAAAACGCGUUCUCCGUUGAAUGGAGUUUAUCAUG [A30C G50C A66G G128U]
GGAUCUUCUCGAUCUAACAAAAAAGACAACUCUGCCACAAAGCUUGAGAGCAACUUCGGAUGCAGAGGCGGCAGCCUUCGGUGACGCGAUAGCGCCAACGUUCUCAACUAUGACACGCAAAACGCGUGCUCCGUUGAAUGGAGUUUAUCAUG [A30C U53A G84A]
GGAUCUUCUCGAUCUAACAAAAAAGACAACUCUGCCACAAAGCUUGAGAGCAUUUUCGGAUGCAGAGGAAGCAGCCUUCGGUGGCGCGAUAGCGCCAACGUUCUCAACUAUGACACGCAAAACGCGUGCUCCGUUGCAUGGAGUUUAUCAUG [A30C C54U C69A G70A A137C]
